Patent US20240409647A1 (SINOMAB BIOSCIENCE, published 2024)

Experiments:
[1] = molecular target: T1, human IL-33 (R&D systems) (human, UniProt O95760 112-270); experiment: BLI (Octet RED96), binder captured via anti-human Fab CH1, IL33 in solution
T1 sequence (looked up): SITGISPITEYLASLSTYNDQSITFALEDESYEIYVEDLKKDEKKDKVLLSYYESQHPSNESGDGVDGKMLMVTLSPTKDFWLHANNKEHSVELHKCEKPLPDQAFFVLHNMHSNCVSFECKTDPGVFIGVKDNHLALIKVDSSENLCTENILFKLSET

[2] = molecular target: T2, human TSLP (R&D systems) (human, UniProt Q969D9 29-159); experiment: ELISA, coated antigen 2 µg/mL
T2 construct: also called thymic stromal lymphopoietin

Kd [1]: 0.407 nM
koff [1]: 0.000226 s⁻¹
kon [1]: 556000 M⁻¹ s⁻¹
binding result [2]: no binding (tested: 33.5 nM)
B1: SM17-hST2 (other)
heavy: QVQLVQSGAEVKKPGASVKVSCKASGYTFISYWMNWVRQAPGQGLEWMGRIDPYDSEIQYNQKFKDRVTMTRDTSISTAYMELSRLRSDDTAVYYCARSGGFDWFAYWGQGTLVTVSSASTKGPSVFPLAPCSRSTSESTAALGCLVKDYFPEPVTVSWNSGALTSGVHTFPAVLQSSGLYSLSSVVTVPSSSLGTKTYTCNVDHKPSNTKVDKRV[sequence of human IgG4 Fc with S228P (EU numbers) not given]GGGSGGGGSGGGGSKFSKQSWGLENEALIVRCPRQGKPSYTVDWYYSQTNKSIPTQERNRVFASGQLLKFLPAAVADSGIYTCIVRSPTFNRTGYANVTIYKKQSDCNVPDYLMYSTVSGSEKNSKIYCPTIDLYNWTAPLEWFKNCQALQGSRYRAHKSFLVIDNVMTEDAGDYTCKFIHNENGANYSVTATRSFTVKDEQGFSLFPVIGAPAQNEIKEVEIGKNANLTCSACFGKGTQFLAAVLWQLNGTKITDFGEPRIQQEEGQNQSFSNGLACLDMVLRIADVKEEDLLLQYDCLALNLHGLRRHTVRLSRKNPSKECF
light: DIQMTQSPSSLSASVGDRVTITCRASENINSNLAWYQQKPGKAPKLLLYDVTNLADGVPSRFSGSGSGTDYTLTISSLQPEDFATYYCQHFWGPPYTFGGGTKVEIKRTVAAPSVFIFPPSDEQLKSGTASVVCLLNNFYPREAKVQWKVDNALQSGNSQESVTEQDSKDSTYSLSSTLTLSKADYEKHKVYACEVTHQGLSSPVTKSFNRGEC
notes: Antibody-receptor fusion: SM17 IgG with the human ST2 extracellular domain fused to each heavy chain; also called SM-17-human ST2; SM17-ST2
